Test results published in PubChem BioAssay (NCI).
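Following 48 hours of exposure in 96-well plates, responses at five concentrations were used to interpolate endpoints linearly. GI50 = concentration required for 50% inhibition of growth. TGI denotes the concentration required for complete inhibition of growth.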 Square brackets hold non-standard residues; d marks the D form. Peptide text beside a SMILES is read from it. * marks the point of attachment. Bn2Val = CC(C)[C@@H](C(=O)*)N(Cc1ccccc1)Cc1ccccc1; NMeV = CN[C@H](C(=O)O)C(C)C; X25 = COc1ccc(CN*)c(OC)c1; dNMeA = CN[C@H](C)C(=O)O

Tested on: NCI-H322M lung
Test: growth of human tumour cells (NCI), 48 h

| SMILES | TGI [µM] | GI50 [µM] |
| --- | --- | --- |
| C=C1[C@@](C)([C@@H]2CCCS2)[C@H]2C(C)=C[C@]1(C)n1c(=O)n(-c3ccccc3)c(=O)n12 | > 100 |  |
| C[N+](C)(C)C=Nc1cccc2c1CCCC2 | > 100 |  |
| C[Si](C)(c1ccc(C(=O)O)cc1)c1ccc(C(=O)O)cc1 | > 100 |  |
| O=S(=O)(c1ccc(-c2nnc(-c3ccc(F)cc3)o2)cc1)c1ccc(-c2nnc(-c3ccc(F)cc3)o2)cc1 | > 100 |  |
| CC1(C)C(CCO)CC1n1ccc(=O)[nH]c1=O (centres undefined) | > 100 |  |
| CS(=O)(=O)c1nc(-c2cc3c(c(S(C)(=O)=O)n2)CCC3)cc2c1CCCC2 | > 100 |  |
| O=C(O)c1cc(=O)c2c([nH]c3ccccc32)s1 | > 100 |  |
| CC(C)c1nc(N(C)S(C)(=O)=O)nc(-c2ccc(F)cc2)c1/C=C/[C@@H](O)C[C@@H](O)CC(=O)O | > 100 | > 86.3 |
| COc1ccc(C2OCCN2C)cc1 (centres undefined) | > 100 |  |
| CCc1cccc(C)c1NC(=O)CCc1nnc2s/c(=C\c3cccc4ccccc34)c(=O)n12 | > 100 |  |
| CN(Cc1ccc(C(F)(F)F)cc1)CC(O)C(=O)Nc1ccc(Cl)cc1 (centres undefined) | 2.98 | 1.59 |
| Cc1ccnc2nc(N)ccc12 | > 100 |  |
| CN1CCN(Cc2ccc(NC(=O)c3cncc(C#Cc4cnc(N)cc4C#N)c3)cc2C(F)(F)F)CC1 | 13.9 | 3.3 |
| O=c1cccccc1NCCCCCCCNc1cccccc1=O | > 100 |  |
| O=c1[nH]c(=O)n(COCCO)c2ccsc12 | > 100 |  |
| Nc1cccc(S(=O)(=O)Nc2nnc(S(N)(=O)=O)s2)c1 | > 100 |  |
| CO[C@H]1O[C@@H]2CO[C@@H](c3ccccc3)O[C@H]2[C@@H]2C/C=C\CCC[C@@]12O | > 100 |  |
| Cc1ccc(S(=O)(=O)N=NC=C2c3ccccc3N(O)c3ccccc32)cc1 | 19.9 |  |
| COc1ccc(Nc2nc3ccccc3c3occc23)cc1 | 39.6 | 5.15 |
| CCCCCCCC(=O)OCCCC1[C@]2(C)CC[C@@]3(C)C([C@H](C)CCC=C(C)C)CC[C@]3(C)C2CC[C@]12OC2(C)C (some centres undefined) | > 100 | > 100 |
| COCC1OC(S(=O)(=O)c2ccccc2)C(O)C(OC)C1OC (centres undefined) | > 100 |  |
| NC(=O)[C@@H](CC1CC1)[C@@H](CCC(F)(F)F)C(=O)N[C@H]1N=C(c2ccccc2)c2cccc(F)c2NC1=O | > 100 | 37.1 |
| CN(C)CCNC(=O)c1cccc2cc3cc(O)ccc3nc12 | 4.98 |  |
| COC(=O)C12CC(NC(=O)c3csc([C@@H](C[C@H](C(C)C)N(C)C(=O)[C@@H](NC(=O)[C@H]4CCCCN4C)C4CC4)OC(C)=O)n3)(C1)C2 | > 16.7 | 0.0747 |

| SMILES | TGI [µM] | GI50 [µM] |
| --- | --- | --- |
| OCC(CCc1ccccc1I)C1=CCC2(CC1)OCCO2 (centres undefined) | 47.5 |  |
| CC(=O)NC(CCCCN)C(=O)NCc1ccccc1 (centres undefined) | > 100 |  |
| COC(=O)C(CCC(=O)CCl)N1C(=O)c2ccccc2C1=O (centres undefined) | 39.1 | 17.8 |
| COC(=O)[C@@](C)(COC(=O)C(C)(C)C)NC(=O)OC(C)(C)C | > 100 |  |
| COc1ccc(CNC(=O)[C@@H]2CCCN2C(=O)[C@@H](C)N(C)C(=O)[C@H](C(C)C)N(C)C(=O)[C@@H](NC(=O)[C@H](C(C)C)N(Cc2ccccc2)Cc2ccccc2)C(C)C)c(OC)c1 (Bn2Val-V[NMeV][dNMeA]P-X25) | 12 |  |
| NS(=O)(=O)c1ccc(N2N=C3c4ccccc4CC3C2c2cccs2)cc1 (centres undefined) | 47.9 | 5.79 |
| CN(C)/C=N\c1ccnc(=O)[nH]1 | > 100 |  |
| O=C(Nc1ccc(F)cc1F)c1cc(Cl)ccc1O | 57.5 | 2.07 |
| [O-]c1ccccc1C=Nc1ccc2c(c1)CCC2.[O-]c1ccccc1C=Nc1ccc2c(c1)CCC2.[O]=[U+2]=[O] | > 100 | > 100 |
| Cc1ccc2nc(-c3ccc(OCC(=O)N=Nc4c(O)[nH]c5ccccc45)cc3)[nH]c2c1 | 21.9 | 3.67 |
| CCCn1cnc2c(SCC(=O)O)nc(N)nc21 | > 100 |  |
| Cc1ccc(NC2=NCCO2)c2c1CCC2 | > 100 |  |
| O=C1C[C@@H]2[C@@H](CCC23CC3)N1 | > 100 |  |
| Cc1ncc(C(=O)Nc2ccc(CN3CCN(C)CC3)c(C(F)(F)F)c2)cc1C#Cc1ccc(N)nc1 | 4.04 | 0.619 |
| CC1(C)CC2(C)CC1CC2(O)c1ccccc1 (centres undefined) | > 100 |  |
| CN(C(=O)c1ccc2c(c1)sc1c(=O)n(C)c3ccccc3c12)c1ccccc1 | > 100 |  |
| O=C(C#Cc1ccccc1)N1c2ccccc2CC1c1c[nH]c2ccccc12 (centres undefined) | 39.6 |  |
| COc1cccc(CN(C)c2ccc(CO)c(Cl)c2)c1 | 86.6 | 14.9 |
| COc1ccc2c(c1OC)-c1c(c3ccc([N+](=O)[O-])cc3c(=O)n1CCCBr)C2=O | > 100 | > 100 |
| COc1ccc(NC(=O)/C=C(C)/C=C/C=C(C)/C=C/C2=C(C)CCCC2(C)C)cc1 | 56.8 | 35.6 |
| CCOc1ccc(N=NC2C(=O)N(C(=O)CC(=O)Nc3ccccc3)N=C2C)cc1 (centres undefined) | > 100 |  |
| O=[N+]([O-])c1nccn1CC(O)CN1CCCCC1 (centres undefined) | > 100 |  |
| C1=C/COCc2cc(ccc2OCCN2CCCC2)Nc2nccc(n2)-c2ccc(o2)COC/1 | 7.93 | 1.82 |
